# Results as given in PubChem BioAssay AID1345083 (National Center for Advancing Translational Sciences (NCATS), 2018).
# Screen size: about 94,000 compounds; about 6,200 (6.6%) were called active. The shares of active, inactive and inconclusive entries below differ from those in the screen. Calls follow the shape of the dose curve; as a rule, active = well fitted inhibition curve with a large enough effect; inconclusive = small, poorly fitted or top-dose-only effect; inactive = flat fitted curve, though single readings scatter. Potencies of inconclusive entries are doubtful fits and often do not repeat.
# Test: Cytotoxic Profiling in HEK 293 Cell Line of Diverse Libraries Using Quantitative High-Throughput Screening; also: nearly all actives have a fitted effect of over 60% in size
# Conditions: HEK 293 viability, ATP luminescence (CellTiter-Glo), 48-72 h; activity change, negative = cytotoxicity: at 115 µM (top of the series) unless noted; series mostly up to 115 µM
# Method in brief: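 CellTiter-Glo luminescence (cellular ATP) was read after 48 or 72 hr of compound exposure at 37 degree Celsius. Cells were HEK 293 plated at 250 cells/well.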
# % is scaled to controls: 0 for no effect and ±100 for the full control effect; potency is read from the fitted curve at half-maximal effect; tags tell the direction and shape of the fitted curve.
SMILES,Potency,outcome,"activity change, negative = cytotoxicity"
Cc1nn(-c2ccccc2)c2c1C(C)N(C1CN(C(=O)Nc3ccc(Cl)cc3)C1)C2=O (configuration not stated),"inconclusive: 28.2 µM [inhibitor, full curve, poor fit]",,
COc1ccc(-c2[nH]ncc2C(=O)NC2CCCc3c2[nH]c2ccccc32)cc1 (configuration not stated),"inconclusive: 50.1 µM [inhibitor, partial curve, poor fit]",,
COc1ccc(Nc2ccnc(N3CCCC(C(=O)NCCc4ccc(Cl)cc4)C3)n2)cc1 (configuration not stated),"inconclusive: 10 µM [inhibitor, full curve, poor fit]",,
COc1ccc(CCNc2ncnc3c2CN(c2ccc(Cl)cc2)C(=O)N(C)C3)cc1,"inconclusive: 50.1 µM [inhibitor, partial curve, poor fit]",,
O=C(NCc1cccs1)c1nc2cccnc2n(CCc2ccccc2)c1=O,"inconclusive: 70.8 µM [inhibitor, partial curve, poor fit]",,
O=C(Nc1cccc(C(F)(F)F)c1)O[C@@H]1CO[C@H]2[C@@H]1OC[C@@H]2NC(=S)NC1CCCCC1,"inconclusive: 56.2 µM [inhibitor, partial curve, poor fit]",,
O=C(CCc1ccccc1)N1CCCC(c2noc(COc3ccccc3F)n2)C1 (configuration not stated),"inconclusive: 70.8 µM [inhibitor, partial curve]",,
O=C(NC1CCOCC1)C1CCN(c2nccc(Nc3ccccc3F)n2)CC1,,inactive,
COc1ccc(CCC(=O)N2CCCC(n3cc(-c4nc(-c5ccccc5)no4)nn3)C2)cc1 (configuration not stated),"inconclusive: 39.8 µM [inhibitor, partial curve, poor fit]",,
CC(=O)NC1(C)CCCN(Cc2cccc(Nc3ccncc3)c2)C1 (configuration not stated),"inconclusive: 126 µM [inhibitor, partial curve, poor fit]",,
CN(Cc1nccs1)c1ccc(-c2nc(-c3ccccc3F)no2)cn1,"inconclusive: 50.1 µM [inhibitor, partial curve, poor fit]",,
COCc1nncn1C1CCN(S(=O)(=O)c2ccc(C)c(Cl)c2)CC1,,,inactive: -9.34%
C[C@@H](c1ccccc1)N(C)C(=O)c1cc(COc2cccc(F)c2)[nH]n1,"inconclusive: 50.1 µM [inhibitor, partial curve, poor fit]",,
CCOc1ccc(NC(=O)N2CCC(Oc3ncccc3C(=O)N3CCCCC3)C2)cc1 (configuration not stated),,,inactive: 8.54%
Cc1nn(-c2ccccc2)c2c1C(C(C)C)N(C1CCN(C(=O)N(C)C)C1)C2=O (configuration not stated),"inconclusive: 89.1 µM [inhibitor, single point]",,
O=C1N(C2CCNCC2)C(c2ccccc2)C12CCCCC2 (configuration not stated),"inconclusive: 89.1 µM [inhibitor, single point]",,
O=C(Nc1ccc(F)cc1F)N1CCOC[C@H](Oc2ccc(C(F)(F)F)cc2)C1,"inconclusive: 126 µM [inhibitor, single point]",,
CC[C@@H]1[C@@H](NC(=O)c2oc(COc3ccccc3)cc2C)[C@@H]2CCO[C@H]12,"inconclusive: 44.7 µM [inhibitor, partial curve]",,
O=C(Nc1ccc2c(c1)CN(Cc1ccccc1F)C(=O)CO2)c1ccc(Cl)cc1,active: 39.8 µM,,
O=C(c1cnccn1)N1CCCC(Cc2noc(-c3ccccn3)n2)C1 (configuration not stated),,,inactive: -19.7%
Cc1cc(OC2CN(Cc3ccc(F)cc3)C2)ccc1F,active: 79.4 µM,,
O=C(Cn1cncn1)N1CCC(C2CCN(Cc3cccc(F)c3F)CC2)C1 (configuration not stated),,,inactive: 0.0647%
O=C(CC1CC1)N[C@@H]1CN(Cc2ccccc2)C[C@H]1CO,,,inactive: -0.0491%

SMILES,Potency,outcome,"activity change, negative = cytotoxicity"
COc1ccc(-c2cc3c(ccn3C)c(C(=O)NCCc3cnc[nH]3)n2)cn1,"inconclusive: 89.1 µM [inhibitor, partial curve]",,
Cc1nn(-c2ccccc2)c2c1C(C)N(C1CN([S+](=O)([O-])c3ccccc3)C1)C2=O (configuration not stated),"inconclusive: 44.7 µM [inhibitor, partial curve, poor fit]",,
Cc1ccccc1CC(=O)N1CCC[C@H]1c1nc(-c2ccc(F)cc2)no1,"inconclusive: 79.4 µM [inhibitor, partial curve, poor fit]",,
Cc1nc(CC(=O)N2CCCC3(CCC(=O)N(CCC(C)C)C3)C2)cs1 (configuration not stated),,,inactive: -20.9%
CCOC(=O)C1=C(C)N=C2SC=C(CC(=O)NCc3ccco3)N2C1c1cccc([N+](=O)[O-])c1 (configuration not stated),"inconclusive: 3.55 µM [inhibitor, full curve, poor fit]",,
O=[S+]([O-])(NC1CCN(c2nc3ncccc3o2)CC1)c1cccc(C(F)(F)F)c1,"inconclusive: 50.1 µM [inhibitor, partial curve, poor fit]",,
Cc1noc(-c2cccc(OC3CN(C(=O)C4CCOC4)C3)c2)n1 (configuration not stated),,,inactive: 12.2%
COc1cc(-c2ccnc(-c3nnc(C)n3C3CCCCC3)c2)ccn1,"inconclusive: 89.1 µM [inhibitor, partial curve, poor fit]",,
O=C(c1cccnc1)N1CCCN(CCn2nc3n(c2=O)CCCC3)CC1,,,inactive: 0.788%
OC1(CN2CCCCC2)CCN(Cc2cnn(-c3cccc(F)c3)c2)C1 (configuration not stated),"inconclusive: 79.4 µM [inhibitor, partial curve]",,
O=C(c1ccccc1F)N1CCC(C(=O)N2CCC(c3nc4ccncc4[nH]3)C2)CC1 (configuration not stated),,,inactive: 0.866%
O=C(c1cc(C(F)(F)F)[nH]n1)N1CC[C@@H](c2ccc(F)cc2)[C@H](O)C1,"inconclusive: 100 µM [inhibitor, partial curve, poor fit]",,
Cc1ccc(-c2ccc3nnc(CNC(=O)c4ccc(C#N)cc4)n3n2)cc1C,,,inactive: -16.8%
O=C(NCc1ccccc1F)c1cc(-c2ccc(F)cc2)c2nncn2n1,"inconclusive: 89.1 µM [inhibitor, partial curve, poor fit]",,
Oc1ccccc1CN1CCNc2cc(Nc3cccnc3)ncc2C1,active: 63.1 µM,,
COc1cccc(OC)c1C(=O)N1C(C(=O)NCC(C)C)COC12CCCC(C)C2 (configuration not stated),,,inactive: -23.6%
COc1ccc(C(=O)N2CCCC(c3nc(-c4ccccc4)no3)CCNC(=O)CC2)cc1 (configuration not stated),"inconclusive: 89.1 µM [inhibitor, single point]",,
COc1ccc(-c2cc(-c3cccnc3OC)cn3cncc23)cc1,"inconclusive: 39.8 µM [inhibitor, partial curve, poor fit]",,
CCN1CCCC2(Cc3ccccc3CN(C(=O)CCC(=O)O)C2)C1 (configuration not stated),,,inactive: -5.06%
Cc1noc(-c2ccc(N3CCN(Cc4nccn4C)CC3)nc2)n1,,,inactive: 3.38%
O=C1CC(C(=O)N2CCc3c(Cl)cccc3C2)CN1Cc1cccnc1 (configuration not stated),"inconclusive: 89.1 µM [inhibitor, single point]",,
Cc1cccc(C)c1NC(=O)Cn1ccn2nc(-c3ccccc3)c(CO)c2c1=O,"inconclusive: 10 µM [inhibitor, full curve, poor fit]",,
Clc1ccc(-c2cnc3n[nH]c(-c4ccccc4)c3n2)cc1,active: 79.4 µM,,

SMILES,Potency,outcome,"activity change, negative = cytotoxicity"
C=C(C)CCC(C)N1CCC(N2CCC(C(=O)NCc3ccccn3)CC2)CC1 (configuration not stated),,,inactive: -4.18%
CCCn1cc2c3c(cccc31)CN(C(=O)c1ccccc1F)CC2,"inconclusive: 63.1 µM [inhibitor, partial curve, poor fit]",,
Cc1noc(C)c1C(=O)N[C@H]1CN(CCS(C)(=O)=O)C[C@@H]1C1CC1,,,inactive: 4.28%
O=C(c1ccncc1)N1CC(Oc2ccc(-c3noc(-c4ccccc4)n3)cc2)C1,"inconclusive: 3.55 µM [inhibitor, full curve, poor fit]",,
CC(=O)N1CCC(c2nnc3n2C(C(=O)NCCc2ccc(Cl)cc2)CC3)CC1 (configuration not stated),,,inactive: -23.9% [at 172 µM]
O=C1CCN(C[C@@H](O)COCc2ccccc2)c2ccccc2CN1C1CCCC1,"inconclusive: 56.2 µM [inhibitor, partial curve, poor fit]",,
CNC(=O)c1cc(C2CC2)nc2c1c(C1CCCN1[S+](=O)([O-])c1c(C)noc1C)nn2C (configuration not stated),,,inactive: -30%
C#CCNC(=O)C1=NOC2CN(S(C)(=O)=O)CC12 (configuration not stated),,inactive [at 172 µM],
Cc1ccc(CNC(=O)c2cc3c(N4CCSCC4)nc(C)cn3n2)cc1,"inconclusive: 89.1 µM [inhibitor, single point]",,
c1ccc(CN(C2COC2)[C@@H]2C[C@@H]3CO[C@H](c4ccccc4)C[C@@H]3C2)cc1,"inconclusive: 70.8 µM [inhibitor, partial curve, poor fit]",,
CCOC(=O)[C@@H]1[C@@H](O)C(=O)N(Cc2ccccc2)C12CCN(C(=O)C1CC1)CC2,,,inactive: 2.23%
Cc1ccc(C(=O)NC2CCN(c3ccnc4ccnn34)C2)cc1 (configuration not stated),active: 63.1 µM,,
O=C(C1CCOCC1)N1CCC(Oc2ccccc2-c2nc(C3CC3)no2)C1 (configuration not stated),"inconclusive: 89.1 µM [inhibitor, single point]",,
CN(CC1(C)CCOCC1)C(=O)c1ccc2cc[nH]c2c1,"inconclusive: 39.8 µM [inhibitor, full curve, poor fit]",,
O=C(NC1CCCCC1)O[C@@H]1CO[C@H]2[C@@H]1OC[C@@H]2n1nnnc1Sc1ccccc1,active: 100 µM,,
COc1ccc2cc1Nc1ccc(cc1)C[C@H](NCC1CC1)C(=O)N(C)[C@@H](C(=O)Nc1ccccc1)C2,"inconclusive: 70.8 µM [inhibitor, single point]",,
COc1ccccc1-c1ccc2ncc(Nc3cccc(O)c3)n2n1,"inconclusive: 126 µM [inhibitor, single point]",,
Cc1ccccc1CNC[C@H]1Cn2ccnc2CO1,,,inactive: -12.5% [at 230 µM]
Cc1ccc(-c2cc3c(=O)n(CCNC(=O)c4cccc(C#N)c4)ccn3n2)c(C)c1,active: 44.7 µM,,
O=C(c1ccc(-c2ccc(N3CCCCCC3)nc2)cc1)N1CCCC1,active: 28.2 µM,,
COc1ccc(-c2cc(N3CCC(NC(=O)c4ccncc4)C3)n[nH]2)cc1 (configuration not stated),"inconclusive: 39.8 µM [inhibitor, full curve, poor fit]",,
